# Laboratory results as given in PubChem BioAssay (NCATS).
# This list was built around the results that the source calls inconclusive (neither active nor inactive); the mix of calls is not that of the screen. Potencies of inconclusive entries are doubtful fits and often do not repeat. Activity calls are given as the source filed them. Calls come from the whole dose curve; as a rule, active = well fitted curve in the direction sought with a large enough effect; inconclusive = small, poorly fitted or top-dose-only effect, or another doubt; inactive = no such curve, though single readings can be large; an effect the other way counts as inactive or inconclusive.
# Key:
# [1] = molecular target: Retinaldehyde dehydrogenase 3 (Homo sapiens) (UniProt P47895); assay: qHTS for Inhibitors of the Aldehyde Dehydrogenase Family (ALDH1A3) Confirmatory screens (AID 2061311); details: activity change, negative = inhibition: at 46 µM (top of the series); note: nearly all actives have a fitted effect of over 60% in size
# [2] = molecular target: Retinal dehydrogenase 2 (Homo sapiens) (UniProt O94788); assay: qHTS for Inhibitors of the Aldehyde Dehydrogenase Family (ALDH1A2) Confirmation screens (AID 2061314); details: activity, negative = inhibition: at 45.9 µM (top of the series) unless noted; note: nearly all actives have a fitted effect of over 65% in size
# [3] = molecular target: Aldehyde dehydrogenase 1A1 (Homo sapiens) (UniProt P00352); assay: qHTS for Inhibitors of the Aldehyde Dehydrogenase Family (ALDH1A1) Confirmatory screens (AID 2061316); details: activity change, negative = inhibition: at 47.3 µM (top of the series); note: nearly all actives have a fitted effect of over 65% in size
# [4] = molecular target: Retinaldehyde dehydrogenase 3 (Homo sapiens) (UniProt P47895); assay: qHTS for Inhibitors of the Aldehyde Dehydrogenase Family (ALDH1A3) Primary screen (AID 2061315); details: ALDH inhibition qHTS; activity change, negative = inhibition: at 56 µM (top of the series) unless noted
# [5] = BET inhibitor-based combinations targeting novel dependencies in MECOM-rearranged (r) AML: AML-191 cell line (AID 2202236; note: nearly all actives have a fitted effect of over 35% in size)
# In short: (§1)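 Here, 11-point titrations of each agent were applied to 500 seeded cells and incubated 48 hr; CellTiter-Glo signal, scaled against DMSO and empty wells, was integrated as AUC, then Z-scored within the individual line.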
# [6] = BET inhibitor-based combinations targeting novel dependencies in MECOM-rearranged (r) AML: AML-194 cell line (AID 2202237; note: nearly all actives have a fitted effect of over 40% in size)
# In short: as §1
# [7] = molecular target: Retinaldehyde dehydrogenase 3 (Homo sapiens) (UniProt P47895); assay: qHTS for Inhibitors of the Aldehyde Dehydrogenase Family (ALDH1A3) Validation screen (AID 2061312); details: ALDH1A3 enzyme inhibition qHTS validation, fluorescence; activity change, negative = inhibition: at 84.7 µM (top of the series); note: nearly all actives have a fitted effect of over 45% in size
# Potency is the fitted concentration of half-maximal effect; tags give direction and shape of the fitted curve.
smiles,measurement,setting,value
Cc1ccc(NC(=O)CSc2nc3ncccc3[nH]2)cc1F,Potency,[1],inactive
Cc1cccc(-c2cccc(CN)c2)c1,Potency,[1],inactive
CN1Cc2nc(Nc3ccc(C(F)(F)F)cc3)ccc2OCC1=O,Potency,[1],active: 15.8 µM
N=c1c2c(ncn1-c1ccccc1)Oc1ccc3ccccc3c1C2c1ccc2c(c1)OCCO2 (configuration not stated),Potency,[1],"inconclusive: 22.5 µM [inhibitor, partial curve]"
same,Potency,[2],inactive
same,Potency,[3],inactive
COc1ccc(-n2c(C)c(C(C)=O)c3cc(OC(=O)c4ccc(C)cc4)ccc32)cc1,Potency,[1],inactive
same,Potency,[2],inactive
same,Potency,[3],inactive
CCOc1ccc(NC(=O)C2CCN(c3cnn(Cc4ccccc4)c(=O)c3)C2)cc1 (configuration not stated),Potency,[1],"inconclusive: 12.6 µM [inhibitor, full curve]"
same,Potency,[2],inactive
same,Potency,[3],"inconclusive: 0.726 µM [inhibitor, full curve]"
COc1cc(/C=C/C(=O)OC[C@H]2O[C@@H](OC3OC=C(C(=O)O)C4C(O)CC(C)(O)C34)[C@H](O)[C@@H](O)[C@@H]2O)cc(OC)c1O (some centres not stated),Potency,[1],"inconclusive: 10.6 µM [inhibitor, single point]"
same,Potency,[4],"inconclusive: 3.16 µM [inhibitor, partial curve]"
same,Potency,[3],"inconclusive: 11.9 µM [inhibitor, partial curve, poor fit]"
Cc1nc2c(C#N)c[nH]n2c(=O)c1C(C)C,Potency,[1],"inconclusive: 15.9 µM [inhibitor, partial curve, poor fit]"
same,Potency,[4],inactive
same,Potency,[3],inactive
CCC(=O)C1CCCN(C(=O)CC(c2ccc3c(c2)OCO3)c2c(O)cc(OC)cc2OC)C1 (configuration not stated),Potency,[1],inactive
same,Potency,[2],inactive
same,Potency,[3],inactive
O=C(O)c1ccc(-n2cccc2/C=C2\SC(=O)N(Cc3ccccc3Cl)C2=O)cc1,Potency,[1],"inconclusive: 28.3 µM [inhibitor, partial curve, poor fit]"
same,Potency,[2],active: 5.65 µM
same,Potency,[3],"inconclusive: 7.98 µM [inhibitor, partial curve]"
O=C(Cc1ccc(Cl)c(Cl)c1)Nc1ccc(S(=O)(=O)O)cc1,Potency,[1],"inconclusive: 14.2 µM [inhibitor, partial curve]"
same,Potency,[3],inactive
C=C1CC[C@@H]2[C@](C)(CO)[C@H](O)CC[C@@]2(C)[C@@H]1CC(=O)C1=CCOC1=O,Potency,[1],inactive
same,Potency,[4],"inconclusive: 7.94 µM [inhibitor, partial curve]"
same,Potency,[3],inactive
NC(=O)c1cccc(-c2cc(OC(=O)NC3CCCCC3)ccc2O)c1,Potency,[1],inactive
same,Potency,[2],"inconclusive: 22.5 µM [inhibitor, partial curve]"
same,Potency,[3],"inconclusive: 14.2 µM [inhibitor, partial curve]"
O=C1CC(c2ccccc2)Cc2[nH]c(=O)c(-c3nc(-c4ccc(F)cc4)cs3)cc21 (configuration not stated),Potency,[1],"inconclusive: 28.3 µM [inhibitor, partial curve]"
same,Potency,[3],"inconclusive: 12.7 µM [inhibitor, partial curve, poor fit]"
C[S+](CC[C@H](N)C(=O)[O-])C[C@H]1O[C@@H](n2cnc3c(N)ncnc32)[C@H](O)[C@@H]1O (some centres not stated),Potency,[1],inactive
same,Potency,[2],inactive
same,Potency,[3],inactive
C/C=C1\[C@H](O[C@@H]2O[C@H](CO)[C@@H](O)[C@H](O)[C@H]2O)OC=C(C(=O)OC)[C@H]1CC(=O)OC[C@H]1O[C@@H](OCCc2ccc(O)cc2)[C@H](O)[C@@H](O)[C@@H]1O,Potency,[1],"inconclusive: 10.6 µM [inhibitor, single point]"
same,Potency,[4],"inconclusive: 4.47 µM [inhibitor, partial curve]"
same,Potency,[3],"inconclusive: 11.9 µM [inhibitor, partial curve, poor fit]"
CC(=O)c1c(C)n(-c2cccc(Cl)c2)c2ccc(OC(=O)c3ccccc3)cc12,Potency,[1],inactive
same,Potency,[3],inactive
CCc1c(C)sc(NC(=O)C2CCCCC2C(=O)O)c1C(N)=O (configuration not stated),Potency,[1],"inconclusive: 12.7 µM [inhibitor, partial curve, poor fit]"
same,Potency,[2],inactive
same,Potency,[3],"inconclusive: 12.7 µM [inhibitor, partial curve]"
COc1cccc(OC2=NS(=O)(=O)c3ccccc32)c1,Potency,[1],inactive
same,Potency,[3],"inconclusive: 25.2 µM [inhibitor, partial curve, poor fit]"
O=S(=O)(NCCc1nnc2ccc(SCc3ccc(C(F)(F)F)cc3)nn12)c1ccccc1,Potency,[1],active: 25.1 µM
same,Potency,[3],inactive
CC1(C)CC(=O)c2c(C(F)(F)F)nn(-c3ccc(C(N)=O)c(NC4CCC(OC(=O)CN)CC4)c3)c2C1 (configuration not stated),Potency,[1],"inconclusive: 0.357 µM [inhibitor, full curve, poor fit]"
same,Potency,[2],"inconclusive: 28.3 µM [inhibitor, partial curve]"
same,Potency,[3],inactive
same,Potency,[5],"inconclusive: 0.235 µM [inhibitor, full curve]"
same,Potency,[6],"inconclusive: 0.332 µM [inhibitor, full curve]"
COc1ccccc1-c1no[n+]([O-])c1C#N,Potency,[1],"inconclusive: 20.1 µM [inhibitor, partial curve, poor fit]"
same,Potency,[2],"inconclusive: 11.3 µM [inhibitor, partial curve]"
same,Potency,[3],inactive
COc1ccc(CC(=O)Nc2c(C(=O)N3CCN(c4ccccc4)CC3)oc3ccccc23)cc1OC,Potency,[1],"inconclusive: 28.2 µM [inhibitor, partial curve, poor fit]"
same,Potency,[2],inactive
same,Potency,[3],"inconclusive: 8.14 µM [inhibitor, partial curve]"
Cc1cccc(-n2cnc3cc(C(=O)N4CCCC(C)(C)C4)ccc32)c1,Potency,[1],"inconclusive: 31.8 µM [inhibitor, partial curve, poor fit]"
same,Potency,[3],"inconclusive: 12.7 µM [inhibitor, partial curve]"
CCc1nc2nc(C)cc(Nc3ccc(Br)cc3F)n2n1,Potency,[1],"inconclusive: 28.2 µM [inhibitor, partial curve]"
same,Potency,[3],inactive
CCN(CC)CC(=O)c1c(C)n(C)c2ccc(OC)cc12,Potency,[1],inactive
same,Potency,[2],inactive
same,Potency,[3],inactive
CC(C)(C)c1ccc(C[C@H](C(=O)O)N2C(=O)c3ccc(C(=O)O)cc3C2=O)cc1,Potency,[1],inactive
same,Potency,[2],inactive
same,Potency,[3],inactive
Nc1ccc2c(c1)S(=O)(=O)NC2=O,Potency,[1],"inconclusive: 17.9 µM [inhibitor, partial curve, poor fit]"
same,Potency,[2],inactive
same,Potency,[3],inactive
N#Cc1nc(NCCO)nc(Nc2ccccc2)n1,Potency,[1],inactive
same,Potency,[2],inactive
same,Potency,[3],inactive
Fc1ccc(-c2c3cccc(C(F)(F)F)c3nn2Cc2ccc(F)cc2Cl)cc1,Potency,[7],"inconclusive: 20 µM [inhibitor, partial curve, poor fit]"
COc1cc(CNc2ncnc3ccc(-c4c(C)noc4C)cc23)cc(OC)c1OC,Potency,[1],inactive
same,Potency,[2],inactive
same,Potency,[3],"inconclusive: 28.3 µM [inhibitor, single point]"
Cc1ccc(OCCn2c(CCNC(=O)CCc3ccc(N)cc3)nc3ccccc32)cc1,Potency,[1],"inconclusive: 28.3 µM [inhibitor, partial curve]"
same,Potency,[3],"inconclusive: 25.2 µM [inhibitor, partial curve]"
O=C1NC(=O)C(c2cn3c4c(cccc24)CCC3)C1c1c[nH]c2ccccc12 (configuration not stated),Potency,[7],inactive
C[C@H](N)C(=O)Nc1cccc(-c2nn3c(=O)cc(N4CCNCC4)nc3s2)c1,Potency,[1],"inconclusive: 2 µM [inhibitor, full curve, poor fit]"
same,Potency,[2],"inconclusive: 3.57 µM [inhibitor, partial curve]"
same,Potency,[3],"inconclusive: 28.3 µM [inhibitor, single point]"
FC(F)(F)c1ccccc1-c1nc(NCc2ccc(Cl)cc2)c2ccccc2n1,Potency,[1],inactive
same,Potency,[2],"inconclusive: 22.5 µM [inhibitor, partial curve, poor fit]"
same,Potency,[3],inactive
CC1(C)[C@H](C(=O)O)N2C(=O)C[C@H]2S1(=O)=O,Potency,[1],"inconclusive: 15.9 µM [inhibitor, partial curve, poor fit]"
same,Potency,[3],inactive
N#Cc1c(-c2ccc(F)cc2)no[n+]1[O-],Potency,[1],inactive
same,Potency,[2],"inconclusive: 12.7 µM [inhibitor, partial curve]"
same,Potency,[3],"inconclusive: 28.3 µM [inhibitor, partial curve, poor fit]"
COc1cccc(-c2ccc(CN3CCCC(NC(=O)Nc4ccccc4)C3)cc2)c1 (configuration not stated),Potency,[1],"inconclusive: 7.26 µM [inhibitor, full curve]"
same,Potency,[3],"inconclusive: 14.1 µM [inhibitor, partial curve]"
CC(=O)c1ccc(N2CCN(S(=O)(=O)c3cc4c(cc3Cl)NC(=O)C4)CC2)cc1,Potency,[1],active: 3.55 µM
same,Potency,[4],"inconclusive: 11.2 µM [inhibitor, partial curve]"
N[C@@]1(C(=O)O)CC[C@H]2[C@H](C(=O)O)[C@H]21,Potency,[1],inactive
same,Potency,[2],inactive
same,Potency,[3],inactive
N[C@@H](CCC(=O)O)C(=O)Nc1ccc(Cl)cc1C(=O)c1ccc[nH]1,Potency,[1],inactive
same,Potency,[3],inactive
COc1cccc(-c2nc(SCc3ccc(C)cc3)n3[nH]c(=O)cc3n2)c1,Potency,[1],active: 7.08 µM
same,Potency,[2],inactive
same,Potency,[3],inactive
CN1CCN(c2cccc(Nc3nn4c(=O)c5ccc(F)cc5nc4s3)c2)CC1,Potency,[1],"inconclusive: 14.2 µM [inhibitor, partial curve, poor fit]"
same,Potency,[2],"inconclusive: 31.8 µM [inhibitor, single point]"
same,Potency,[3],"inconclusive: 22.5 µM [inhibitor, partial curve, poor fit]"
CC1(C)Oc2ncnc(N)c2N=C1c1ccc(C23CCC(CC(=O)O)(CC2)CC3)cc1,Potency,[7],inactive
C[N+]1(C)[C@@H]2C[C@@H](OC(=O)C(O)(c3cccs3)c3cccs3)C[C@H]1[C@@H]1O[C@@H]12,Potency,[7],"inconclusive: 5.01 µM [inhibitor, full curve, poor fit]"
C=CCN1CCc2cc(O)c(O)cc2C(c2ccccc2)C1 (configuration not stated),Potency,[7],"inconclusive: 12.6 µM [inhibitor, partial curve]"
